Laboratory results as given in PubChem BioAssay AID1745845 (National Center for Advancing Translational Sciences (NCATS), 2022).
Where “and” joins values, the source holds several entries; their conditions need not be identical. Equal entries are not always repeated. In all, about 360,000 compounds went through this assay and about 2,600 (0.72%) were called active. The shares of active, inactive and inconclusive entries below differ from those in the screen. Calls follow the shape of the dose curve; as a rule, active = well fitted inhibition curve with a large enough effect; inconclusive = small, poorly fitted or top-dose-only effect; inactive = no such curve, though single readings can be large or run the other way. A potency beside an inconclusive call is a rough fit, not a confirmed value. The source holds several records for some structures; these can differ, active in one and inactive in another.
Potency is read from the fitted curve at half-maximal effect; tags tell the direction and shape of the fitted curve.

Assay: Primary qHTS for Inhibitors of ATXN expression; also: nearly all actives have a fitted effect of over 55% in size
Conditions: HEK-293 ATXN2-luciferase reporter, luminescence, 24 h; series mostly up to 57 µM
Summary of the method: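 qHTS (up to 57 uM final) was run with 24 h compound exposure of reporter cells at 37 °C. Each well was multiplexed: SteadyGlo luminescence measured ATXN2-luciferase expression after a fluorogenic Gly-Phe-AFC viability readout (25 uM final).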
For CC(=O)c1cccc(-c2cnc3c(NC=O)cc(-c4ccccc4Oc4ccccc4)cn23)c1, the Potency was inconclusive: 39.8 µM [inhibitor, single point]. With CCn1c(C)nc2cc(-c3nc4n(n3)Cc3ccccc3-4)ccc21 the Potency was active: 0.398 µM. For CC(=O)c1nn(-c2cccc(Br)c2)cc1C(=O)c1ccc2ccccc2c1, the Potency was inconclusive: 22.4 µM [inhibitor, single point]. With COc1cc(OC)cc(C(=O)Nc2ccc(NC(=O)c3ccco3)c(Cl)c2)c1 the Potency was inconclusive: 37.7 µM [inhibitor, single point]. For CC1=CC(=O)c2ccccc2C1=O, the Potency was active: 12.6 µM and active: 24.3 µM and inconclusive: 15.8 µM [inhibitor, partial curve]. In the case of O=C(CN1C(=O)NC2(CCCC2)C1=O)Nc1ccccc1, the Potency is reported as “inactive”. With CC1(C)S[C@@H]2[C@H](NC(=O)COc3ccccc3)C(=O)N2C1C(=O)OCC1CCCCC1 (stereo partly specified) the Potency was “inactive”. In the case of CCN(CC)C(=O)[C@H]1C[C@H](CC(=O)NCC23CC4CC(CC(C4)C2)C3)C(=O)N2CCc3c([nH]c4ccc(Cl)cc34)[C@]12C, the Potency is reported as inconclusive: 39.8 µM [inhibitor, single point]. For CC1CCCN(S(=O)(=O)c2cc(C(=O)NCc3ccccc3Cl)n(C)c2)C1 (stereo unspecified), the Potency was “inactive”. With CC(C)(C)C(=O)Nc1ccc(C(=O)N/N=C/c2ccccc2OC(=O)c2ccccc2)cc1 the Potency was inconclusive: 20 µM [inhibitor, single point]. In the case of COC(=O)c1cccc(NC(=S)NCc2ccc(Cl)cc2)c1, the Potency is reported as “inactive”. For C/C(=N\Nc1ccc([N+](=O)[O-])cc1)c1ccc(O)cc1, the Potency was “inactive”. For COc1ccc(/C(C)=N\Nc2nc(-c3ccc(Cl)cc3)cc(C(F)(F)F)n2)cc1OC, the Potency was inconclusive: 7.08 µM [inhibitor, single point]. With CCCCCCCCN1C(=O)[C@H](CC(=O)NCc2ccc(OC)c(OC)c2)C[C@@]2(C(=O)OCC)CCCC=C12 the Potency was inconclusive: 39.8 µM [inhibitor, single point]. For CCOc1ccc2nc(C)cc(Nc3ccc4c(c3)OCCO4)c2c1, the Potency was inconclusive: 39.8 µM [inhibitor, single point]. With NC1=C(Cl)C(=O)c2ccccc2C1=O the Potency was inconclusive: 22.4 µM [inhibitor, partial curve, poor fit]. For CCCCCCCCOC(=O)C1=C(C)Nc2nnnn2C1c1cccs1 (stereo unspecified), the Potency was inconclusive: 39.8 µM [inhibitor, partial curve, poor fit]. For COc1cc(NC(=O)CSCC(=O)Nc2cccc(C(F)(F)F)c2)c(Cl)cc1Cl, the Potency was inconclusive: 31.6 µM [inhibitor, single point]. With CC(C)CCCCCCCCCCCCC(=O)NCC(=O)NC1C(C)OC(Nc2ncnc3nc[nH]c23)C(O)C1O (stereo unspecified) the Potency was inconclusive: 0.398 µM [inhibitor, partial curve, poor fit]. With COc1ccccc1N1CCN(S(=O)(=O)c2c(C)[nH]c(C)c2C(=O)N2CCCCC2)CC1 the Potency was “inactive”. In the case of c1cc(-c2cc3nc(NC4CCCCC4)ccn3n2)ccc1OCCN1CCOCC1, the Potency is reported as inconclusive: 39.8 µM [inhibitor, single point]. For COC(=O)c1ccc(C)c(NC(=O)CCCN2C(=O)NC(C)(C)C2=O)c1, the Potency was “inactive”. For COc1ccc(C(OC(=O)c2ccco2)C(=O)NC2CCCC2)cc1 (stereo unspecified), the Potency was “inactive”. In the case of COc1cc2c(=O)n(CCCN3CCOCC3)c(=S)[nH]c2c(OC)c1OC, the Potency is reported as “inactive”. In the case of Nc1nnnn1/N=C/c1cc(Cl)cc(Cl)c1OCc1ccc(Cl)cc1Cl, the Potency is reported as inconclusive: 3.16 µM [inhibitor, full curve, poor fit]. In the case of Cc1noc(C)c1COc1ccccc1C(=O)N1CCN(c2cccc(C(F)(F)F)c2)CC1, the Potency is reported as inconclusive: 20 µM [inhibitor, partial curve, poor fit]. For O=C(C1=C[C@@H](C2CCCCC2)C[C@@H](OCc2ccc(CO)cc2)O1)N1CCN(Cc2ccccc2)CC1, the Potency was inconclusive: 39.8 µM [inhibitor, single point]. In the case of Cc1ccc(OCCCCN(C)Cc2ccccc2)c(Br)c1, the Potency is reported as “inactive”. With c1ccc(-c2cc3c(-n4cccc4)ncnc3o2)cc1 the Potency was “inactive”. In the case of c1ccc2cc(CCO[C@H]3CCCCO3)ncc2c1, the Potency is reported as inconclusive: 20 µM [inhibitor, single point]. In the case of OCCC#Cc1nc(-c2ccc(F)cc2)c(-c2ccncc2)n1CCCc1ccccc1, the Potency is reported as inconclusive: 30.6 µM [inhibitor, single point]. For O=C1ON=C(c2cccc([N+](=O)[O-])c2)/C1=C/c1ccc(O)cc1, the Potency was inconclusive: 39.8 µM [inhibitor, single point]. With O=C(NNc1ccccc1)Nc1cc(Cl)ccc1Cl the Potency was “inactive”. In the case of COc1ccc(OCC2c3cc(OC)c(OC)cc3CCN2C(=O)COc2ccc(Cl)cc2Cl)cc1 (stereo unspecified), the Potency is reported as “inactive”. With C=CCn1c(SCC(=O)c2[nH]c(C)c(C(=O)OC)c2C)nc2scc(-c3ccc(OC)c(OC)c3)c2c1=O the Potency was inconclusive: 5.01 µM [inhibitor, full curve]. In the case of CCOC(=O)C(=CNc1ccc2c(c1)nnn2-c1ccc(Cl)cc1)C(=O)OCC, the Potency is reported as active: 23.8 µM. With COc1cccc(CN2C(=O)[C@H]3Cc4c([nH]c5ccccc45)C(C)(C)N3C2=O)c1 the Potency was inconclusive: 39.8 µM [inhibitor, single point]. With COc1ccc(OC)c(Nc2nc(NCCCN(C)C)nc(N)c2[N+](=O)[O-])c1 the Potency was inconclusive: 2.82 µM [inhibitor, partial curve, poor fit]. In the case of O[C@@H]1CN(Cc2ccc(-n3cccn3)cc2)CC[C@H]1N1CCN(c2ccccc2F)CC1, the Potency is reported as inconclusive: 11.2 µM [inhibitor, partial curve, poor fit]. In the case of CCN(C(=O)CSc1nc2n[nH]c(C)c2c(=N)n1-c1cccc(OC)c1)c1cccc(C)c1, the Potency is reported as inconclusive: 35.5 µM [inhibitor, single point]. With NC(=S)N/N=C/c1ccccc1OC(=O)/C=C/c1ccccc1 the Potency was active: 1.78 µM. In the case of O=C(C1CCC(CNS(=O)(=O)c2cccc3nsnc23)CC1)N1CC=C(c2ccccc2)CC1 (stereo unspecified), the Potency is reported as inconclusive: 25.1 µM [inhibitor, single point]. In the case of COc1ccc2c(c1)c1nnc(SCC(=O)Nc3ccccc3F)nc1n2C, the Potency is reported as inconclusive: 1.68 µM [inhibitor, full curve, poor fit]. With CN(C(=O)CSc1nc2ccc(NC(=O)COc3ccccc3)cc2s1)c1ccccc1 the Potency was inconclusive: 28.2 µM [inhibitor, single point]. With CC(NS(=O)(=O)c1ccccc1)C1CC2CCC1C2 (stereo unspecified) the Potency was inconclusive: 1.41 µM [inhibitor, partial curve, poor fit]. For O=C(/C=C/c1cccc([N+](=O)[O-])c1)c1cccs1, the Potency was inconclusive: 31.6 µM [inhibitor, single point]. With CC(=O)N[C@@H](C)c1nc2ccccc2n1CCCN1CCN(c2nc(-c3ccc(C)cc3)cs2)CC1 the Potency was inconclusive: 28.2 µM [inhibitor, partial curve, poor fit]. With OC(c1ccccc1)(c1ccccc1)C1CCN(CCCOc2cccc(OC(F)(F)F)c2)CC1 the Potency was inconclusive: 22.4 µM [inhibitor, single point]. For Cc1cccc2nc(CSc3nc4[nH]ncc4c(=O)n3-c3cccc(Cl)c3)cc(=O)n12, the Potency was inconclusive: 20 µM [inhibitor, single point]. For COc1ccc(Cl)cc1NC(=O)C(C)N1CCN(C/C=C/c2ccccc2)CC1 (stereo unspecified), the Potency was inconclusive: 22.4 µM [inhibitor, single point]. With Clc1ccc(-c2csc(N/N=C\c3cccnc3)n2)cc1 the Potency was “inactive”. With CCc1nc2c(OCc3ccc(Cl)cc3Cl)cccn2c1N(C)C(=O)c1ccccc1F the Potency was inconclusive: 31.6 µM [inhibitor, single point]. In the case of CC(NC(=O)NC(N)=O)(C(F)(F)F)C(F)(F)F, the Potency is reported as “inactive”. For CCN(CC)c1cc(C)c2cc(NC(=O)c3ccc(F)cc3Cl)ccc2n1, the Potency was inconclusive: 22.4 µM [inhibitor, partial curve]. For CC1CC(C)CN(CCCNC(=O)c2cc3c(s2)-c2ccccc2OC3)C1 (stereo unspecified), the Potency was active: 25.1 µM. In the case of COc1ccc2nc(C)cc(SCC(=O)Nc3c(C)cccc3C)c2c1, the Potency is reported as “inactive”. In the case of O=C1CC(c2cccc(Cl)c2)c2cc3c(cc2N1)CCC3 (stereo unspecified), the Potency is reported as inconclusive: 14.1 µM [inhibitor, partial curve]. In the case of Cc1ccc(-c2cc(C(F)F)nc(S(C)(=O)=O)n2)cc1, the Potency is reported as inconclusive: 39.8 µM [inhibitor, single point]. With O=C1/C(=C/c2ccc(N3CCOCC3)o2)SC(=Nc2ccccc2)N1CCc1c[nH]c2ccccc12 the Potency was active: 17.8 µM. For O=C(Nc1nncs1)c1cc2c(s1)CCC2, the Potency was “inactive”. In the case of CCc1ccc(-n2nc(C)c3c(C)cc(=O)n(CC(=O)Nc4ccccc4C(=O)OC)c32)cc1, the Potency is reported as inconclusive: 15.8 µM [inhibitor, partial curve, poor fit]. For CC1CCCN(c2nc3c(c(=O)n(C)c(=O)n3C)n2CCSc2nc3ccccc3s2)C1 (stereo unspecified), the Potency was “inactive”. In the case of CCCOc1ccc(-c2c(C(=O)N/N=C/c3cccs3)nnn2-c2nonc2N)cc1, the Potency is reported as “inactive”. In the case of C[C@@H](Oc1cc(-c2cnn(C3CCNCC3)c2)cnc1N)c1c(Cl)ccc(F)c1Cl, the Potency is reported as inconclusive: 43.2 µM [inhibitor, single point]. For CCCCCCc1cc2cc(S(=O)(=O)c3ccc(C)cc3)c(=O)oc2cc1O, the Potency was inconclusive: 39.8 µM [inhibitor, single point]. In the case of Cc1cccc(NCCC#N)c1, the Potency is reported as inconclusive: 8.91 µM [inhibitor, partial curve, poor fit].
